# Results from PubChem BioAssay AID504832 (National Center for Advancing Translational Sciences (NCATS), 2011).
# The campaign covered roughly 310,000 compounds. About 18,000 (5.8%) were called active. The shares of active, inactive and inconclusive entries below differ from those in the screen. The call rests on the fitted dose curve; in most records, active means well fitted inhibition curve with a large enough effect; inconclusive means small, poorly fitted or top-dose-only effect, or another doubt; inactive means no such curve, though single readings can be large or run the other way. Potencies of inconclusive entries are left out as doubtful fits.
# Assay: Primary qHTS for delayed death inhibitors of the malarial parasite plastid, 48 hour incubation
# Details: P. falciparum luciferase growth in erythrocytes; series mostly up to 28.7 µM; activity change, negative = inhibition: at the top concentration
# Outline: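 Cell-based growth assay: transgenic P. falciparum expressing firefly luciferase, cultured in red cells within RPMI 1640 containing 0.5% w/v Albumax, 24 mM bicarbonate and gentamycin. A drop in luciferase activity indicates inhibition.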
# On the % scale 0 is the no-effect control and ±100 the full control effect; potency means the concentration at half of the fitted maximal effect; tags describe the fitted curve by direction and shape.
Structure (SMILES),"activity change, negative = inhibition",Potency
O=C(Cn1nnc(-c2ccc(Cl)cc2)n1)NC1CC2CCC1C2 (stereo not given),inactive: 0%,
COc1ccc(NC(=O)CN(C)C(=O)c2ccccc2CCc2ccccc2)cc1,,"inconclusive [inhibitor, single point]"
Cc1ccc(COn2c(-c3ccc(Cl)cc3Cl)nc3ncccc32)cc1,,"inconclusive [inhibitor, partial curve, poor fit]"
C=C(C)C(=O)Nc1cccc(C2=NOC3(C2)C[C@@H](C(N)=O)N(C(=O)c2cc([N+](=O)[O-])cc([N+](=O)[O-])c2)C3)c1 (stereo not given in full),,"inconclusive [inhibitor, single point]"
Cc1nnsc1C(=O)NC(C)C12CC3CC(CC(C3)C1)C2 (stereo not given),,"inconclusive [inhibitor, single point]"
COc1ccc(C2CC(c3ccccc3)=NN2c2ccc(N)cc2)cc1 (stereo not given),,"inconclusive [inhibitor, single point]"
Cc1ccc(NC(=O)COc2coc(CN3c4ccccc4CC3C)cc2=O)c(C)c1 (stereo not given),,"inconclusive [inhibitor, single point]"
CCOC(=O)C1=C(CC)OC(N)=C(C#N)C1c1cccs1 (stereo not given),inactive: -18.8%,
Cc1cccc(Nc2ncnc3ccccc23)c1,inactive: 64.3%,
CCOc1ccc(S(=O)(=O)N(C)c2ccc(OCC(=O)Nc3ccc4[nH]c(=O)[nH]c4c3)cc2)cc1,,"inconclusive [inhibitor, single point]"
COc1ccc(/C=N/n2c(C3CCCCC3)n[nH]c2=S)c(OC)c1,,"inconclusive [inhibitor, partial curve]"
COc1cccc(C2C(C#N)=C(N)N(N(C)C)C3=C2C(=O)CC(C)(C)C3)c1OC (stereo not given),,"inconclusive [inhibitor, partial curve]"
CC1CCCCC1NC(=O)/C(C#N)=C/c1ccc(F)c(F)c1 (stereo not given),,active: 11.7 µM
Cc1c(CCC(=O)NC2CC2)c(=O)oc2cc(O)ccc12,,"inconclusive [inhibitor, single point]"
COc1ccc(OC)c(-c2csc(NC(=O)COC(=O)C3CC3)n2)c1,inactive: 9.21%,
CCOc1ccccc1N(CC(=O)Nc1cc(OC)ccc1OC)S(=O)(=O)c1ccccc1,,"inconclusive [inhibitor, partial curve, poor fit]"
CC1(C)CC(=O)C(CC(=O)Nc2cc(C(F)(F)F)ccc2Cl)C(=O)C1,inactive: -14.3%,
Cc1ccc(OCCOC(=O)c2c(-c3ccccc3)noc2C)cc1,,"inconclusive [inhibitor, partial curve, poor fit]"
COc1ncccc1C(=O)NC1CCCc2c1cnn2-c1cc(C)cc(C)c1 (stereo not given),inactive: -15.5%,
CC(C)(C)NC(=O)CN1CCCN(C(=O)c2cccc(S(=O)(=O)N3CCc4ccccc43)c2)CC1,,"inconclusive [inhibitor, single point]"
Cc1ccc(CC(=O)Nc2ccccc2N2CCOCC2)cc1C,,"inconclusive [inhibitor, partial curve, poor fit]"
Brc1ccc(-c2nnc3n2-c2ccccc2CC3)cc1,inactive: 1.44%,
CC(C)c1cc(-c2cc(-c3ccccc3)on2)nc(NC2CCCC2)n1,,"inconclusive [inhibitor, single point]"
CCCCn1c(C)cc2cc(O)ccc21,,"inconclusive [inhibitor, single point]"

Structure (SMILES),"activity change, negative = inhibition",Potency
Cc1c(C)n(C)c2ccc(C(=O)NCCCN3CCN(c4ccccc4F)CC3)cc12,,active: 10.4 µM
CCOC(=O)N1CCC(N2CCN(Cc3ccccc3)C(CCO)C2)CC1 (stereo not given),inactive: 7.9%,
COc1ccc(OCCCC(=O)Nc2cc(S(=O)(=O)N3CCCCC3)ccc2OC)cc1,,active: 11.7 µM
Nc1ncc(-c2ccccc2)n1CC1CCCO1 (stereo not given),,"inconclusive [inhibitor, single point]"
Cc1ccc(C(=O)c2coc3ccc(O)c(CN(C)C)c23)cc1,,"inconclusive [inhibitor, partial curve, poor fit]"
Cc1cc(/C=C2\SC(=S)N(Cc3ccco3)C2=O)c(C)n1-c1ccccc1,,"inconclusive [inhibitor, single point]"
CCOC(=O)/C(C#N)=C/Nc1ccsc1C(=O)OC,,"inconclusive [inhibitor, partial curve]"
CCn1c(=O)c(=O)[nH]c2cc(C(=O)NC3CCCC3)ccc21,inactive: -3.97%,
O=C(Cn1cccc(C(F)(F)F)c1=O)c1ccc(Cl)cc1,,"inconclusive [inhibitor, partial curve, poor fit]"
O=C(Nc1cc(-c2nn(CC(=O)N3CCCCC3)c(=O)c3ccccc23)ccc1N1CCOCC1)c1ccc(Cl)cc1,,"inconclusive [inhibitor, full curve, poor fit]"
COc1ccc(CN2C3CCCC2CC(NC(=O)/C=C/c2ccccc2)C3)cc1 (stereo not given),,"inconclusive [inhibitor, single point]"
O=C(c1ccco1)N1CCN(C(=O)c2ccc(-c3ccccc3Cl)o2)CC1,,"inconclusive [inhibitor, single point]"
COc1cc(COc2ccc3c(C)c(Cc4ccccc4)c(=O)oc3c2)cc(OC)c1OC,,active: 8.28 µM
O=C(NNC(=S)NCc1ccccc1)c1cccnc1,,"inconclusive [inhibitor, partial curve, poor fit]"
Cc1cccnc1Nc1nc(-c2ccccn2)cs1,,"inconclusive [inhibitor, full curve]"
CCn1nnc(NC(=O)COc2ccc([N+](=O)[O-])cc2)n1,inactive: 6.47%,
Nc1ccc(C(=O)NCC2(c3ccccc3)CCCC2)cc1,,"inconclusive [inhibitor, single point]"
O=C(O)C1C2C=CC(C2)C1C(=O)NCCCN1CCCC1=O (stereo not given),,"inconclusive [inhibitor, full curve, poor fit]"
Cc1ccc(NC(=S)NCc2ccc(Cl)cc2)c(C)c1,,active: 10.4 µM
O=C(CCS(=O)(=O)c1ccccc1)N1CCN(c2ccccc2)CC1,inactive: 146%,
CCCn1nc(C(=O)Oc2ccc3c(C)cc(=O)oc3c2)c2ccccc2c1=O,inactive: 27.3%,
N#C/C(=C\c1ccc(N2CCCCC2)o1)C(N)=O,inactive: 85.1%,
CCCN(CCC)C(=O)C1CCN(c2ccc(S(=O)(=O)N3CCOCC3)cc2[N+](=O)[O-])CC1,,"inconclusive [inhibitor, single point]"
COc1ccc(Cn2c(N)c(C(=O)NCc3ccco3)c3nc4ccccc4nc32)cc1OC,,"inconclusive [inhibitor, single point]"

Structure (SMILES),"activity change, negative = inhibition",Potency
CN(C)c1ccc(-c2cc(O)c3ncccc3c2)cc1,,active: 3.7 µM
Cc1ccc(C(=O)NCCSc2snnc2C)cc1,inactive: 27.5%,
OCc1cn(-c2ccccc2)nc1-c1ccc2c(c1)OCCO2,inactive: 195%,
COc1ccccc1C1=NOC(COC(=O)c2ccc(Br)cc2)C1 (stereo not given),inactive: 26.9%,
COc1ccc(NC(=O)Cc2nnc(SCC(=O)NC3CCCCC3C)n2C)cc1 (stereo not given),,"inconclusive [inhibitor, single point]"
COCc1c(Br)c(C)nc(OCC(=O)N/N=C/c2ccc(C)o2)c1C#N,,"inconclusive [inhibitor, full curve, poor fit]"
Cc1cccc(-c2nc(C#N)c(NC3CCCCC3)o2)c1,inactive: 64.5%,
c1ccc(CCCCN2CCN=C2Nc2ccccc2)cc1,,"inconclusive [inhibitor, single point]"
COc1cc([N+](=O)[O-])ccc1NC(=O)Cc1ccccc1,inactive: 14%,
S=C(N/N=C1\C2CN3CCN(C2)CC1(c1ccccc1)C3)Nc1ccccc1,,"inconclusive [inhibitor, partial curve, poor fit]"
COc1ccc(N2CCN(C(CNC(=O)C(C)C)c3ccc4c(c3)OCO4)CC2)cc1 (stereo not given),,"inconclusive [inhibitor, partial curve, poor fit]"
Cc1ccc(N(Cc2cc3ccccc3[nH]c2=O)C(=O)c2cccs2)cc1C,,active: 11.7 µM
COc1ccc(CN2CCN(Cc3c[nH]c4ccccc34)CC2CCO)cc1C (stereo not given),,"inconclusive [inhibitor, single point]"
CC1Sc2ccc(S(=O)(=O)N3CCC(C(=O)Nc4cccc(Cl)c4)CC3)cc2NC1=O (stereo not given),,"inconclusive [inhibitor, single point]"
O=C(CCN1C(=O)S/C(=C\c2ccc(Cl)cc2)C1=O)Nc1ccc(C(=O)O)cc1,inactive: -13%,
COc1cccc(CN(C)C(=O)c2cc(S(=O)(=O)N3CCCCCC3)ccc2OC)c1,,"inconclusive [inhibitor, partial curve, poor fit]"
COC(=O)c1c(C)oc2ccc(N(C(=O)Oc3ccccc3)S(=O)(=O)c3ccc(Cl)c([N+](=O)[O-])c3)cc12,,"inconclusive [inhibitor, partial curve, poor fit]"
Cc1ccc2cc(CN(CC3CCCO3)C(=S)Nc3ccccc3)c(=O)[nH]c2c1C (stereo not given),,active: 10.4 µM
Cc1ccc(NC(=O)CSc2ccc(-c3ccc(-n4cccn4)cc3)nn2)c(C)c1,inactive: 11.2%,
O=C(O)[C@H]1Cc2ccccc2CN1S(=O)(=O)c1ccc(F)cc1,inactive: 44.8%,
CCc1cccc2c(C=C(C#N)C#N)cn(CC(=O)N3CCCCCC3)c12,,"inconclusive [inhibitor, partial curve, poor fit]"
CC(C)N(Cc1nc(-c2ccccc2)no1)C(=O)CSc1ccccc1,,"inconclusive [inhibitor, single point]"
